This passage reports binding signal results from paper PMC5836133.

This is one part of the list. At the low end of the ranking the order means little.

For the test, the system named is T1, GST-NbGlk1(82-244).
T1 sequence: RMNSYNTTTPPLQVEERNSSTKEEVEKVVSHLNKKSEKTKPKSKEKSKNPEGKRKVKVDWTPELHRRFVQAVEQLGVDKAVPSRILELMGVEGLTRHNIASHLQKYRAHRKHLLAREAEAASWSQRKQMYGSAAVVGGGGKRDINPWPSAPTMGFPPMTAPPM
Kind of test: protein-binding microarray.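 Further: rank-based score ranging −0.5 to +0.5 with E above 0.45 taken as significant binding.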 To be noted: NbGlk1 is a Golden2-like transcription factor of Nicotiana benthamiana; high values mean tight binding; most listed sequences are background and not binding sites; double strand, one strand shown.
In turn, AAGTGAGC came in with a binding signal of -0.0311 E-score. The result for AGGATAAG reads 0.056 E-score; that for AAATTTCA, 0.229 E-score. The result for AGTTCAAC reads -0.109 E-score. The result for ACGCCGTG reads -0.136 E-score. AGTACGCC: the binding signal was -0.205 E-score. On to ATAGTTGC, for which the binding signal came to 0.0654 E-score. The value for AAGAAAAC was -0.209 E-score.

AGCGACGC showed a binding signal of -0.131 E-score. The value for AAATTATT was 0.194 E-score; that for CAAATATG was 0.212 E-score. Take AGTTTCCG: the binding signal is -0.12 E-score. ACATTATG returned a binding signal of 0.0963 E-score. The result for AGCTGCCC reads -0.248 E-score; that for AACGATCG, 0.0987 E-score; that for AGAGGTTA, -0.151 E-score. The sequence AGCGTGAT yielded a binding signal of 0.156 E-score. The result for AAACTACT reads 0.127 E-score. In turn, ACCGCAAT had a binding signal of 0.302 E-score.

In the case of CAAGCTTA, the binding signal was -0.166 E-score. Regarding AGAATCCA, the binding signal amounted to 0.456 E-score.

ATATATTG had a binding signal of 0.316 E-score. Regarding AGGCATTA, the binding signal was -0.0293 E-score.

In turn, CAAATAGA returned a binding signal of 0.138 E-score.

In turn, ACGATCAC came in with a binding signal of 0.156 E-score. The result for ACGCTTGC reads -0.128 E-score. The value for AGACTCTC was -0.169 E-score. In turn, AATGCAAT showed a binding signal of 0.303 E-score. With CAGCACAA, the binding signal is -0.0499 E-score.

As for ATTTGCCG, the binding signal came to 0.238 E-score.

ATATGGAA had a binding signal of 0.219 E-score. Consider AATCATCG, for which the binding signal worked out at 0.225 E-score. AGGTGGGC: the binding signal is -0.213 E-score. The result for ATCAGATA reads 0.311 E-score; that for ACGTTCAA, -0.0144 E-score. The value for AACTACAT was 0.031 E-score. The value for ACGACAGT was -0.208 E-score. ATACGCTA: the binding signal was 0.239 E-score.

In the case of ATCGGCGA, the binding signal amounted to 0.184 E-score. As for AAGCTAAT, the binding signal is -0.0497 E-score. The value for ACCACAAT was 0.155 E-score. The result for ATGAAACC reads -0.0677 E-score; that for AAGCGAGG, -0.102 E-score. The result for ACTTATTG reads 0.0501 E-score; that for ACACCTCC, -0.00427 E-score; that for AGCCTCGG, -0.152 E-score. Sequence AGCGCATC showed a binding signal of -0.0255 E-score. AAGAATCC had a binding signal of 0.455 E-score. In the case of AGAACGAC, the binding signal was -0.13 E-score. The result for ATGCCTGG reads -0.195 E-score. The value for AGAAGCTA was -0.231 E-score. The value for AGATATGA was 0.318 E-score; that for AGCGTCTC was -0.337 E-score; that for AGGCTAGA was -0.00448 E-score.

In turn, AGGCGACG had a binding signal of -0.124 E-score. The result for ACGACAAG reads -0.115 E-score. The value for ACATTCTC was 0.0798 E-score; that for ACCCCTAT was -0.0331 E-score. As to AAAACAGG, the binding signal was 0.0296 E-score.

Sequence CAAGTGCA registered a binding signal of -0.0346 E-score.

ACACCCAT returned a binding signal of -0.00979 E-score.

AGCCTATG yielded a binding signal of -0.237 E-score. ATGAGACG displayed a binding signal of -0.128 E-score.

Take AACCTCGG: the binding signal was -0.166 E-score. The value for ATAGAACA was -0.00121 E-score. The result for ATCCACAC reads 0.203 E-score; that for AAGGATTC, 0.374 E-score.

In turn, AATAGAGT gave a binding signal of -0.0137 E-score. The result for AGTCCGGC reads -0.322 E-score; that for AATGTCTC, 0.0102 E-score; that for ATACCGCA, 0.211 E-score. The value for ATTCAGGA was 0.206 E-score. The sequence AGATTTCG yielded a binding signal of 0.486 E-score.

AGTGCCTG yielded a binding signal of -0.217 E-score. The result for ATGGTGCC reads -0.267 E-score; that for ATCTAAGA, 0.26 E-score; that for AATATCGT, 0.322 E-score. The value for AGAATTCA was 0.0984 E-score; that for ACACTTTA was 0.0811 E-score; that for AAACTATT was 0.108 E-score. The result for CACGTGGG reads -0.14 E-score. For the sequence CACATTAA, the binding signal was -0.0433 E-score.

ATTCCCGG: the binding signal came to 0.283 E-score. In the case of ATAAATGA, the binding signal stood at 0.175 E-score. In turn, ACCGATAA yielded a binding signal of 0.124 E-score.

Turning to AACCTGTC, the binding signal was -0.169 E-score.

For ACCGGACG, the binding signal was -0.304 E-score. The result for ACAGCCCG reads -0.27 E-score; that for ACAGCGGA, 0.0705 E-score; that for AATAGAAG, -0.105 E-score. The value for ACGAAGAT was 0.31 E-score; that for ATACAGGG was -0.0974 E-score; that for AGTGCCCG was -0.25 E-score. As for AGCCTTAG, the binding signal is -0.214 E-score.

As to CAAGGATC, the binding signal is 0.15 E-score. The result for AGATGTCA reads 0.0338 E-score.

In turn, AATTGTTG gave a binding signal of 0.0223 E-score. Consider ACATAGGC, for which the binding signal was -0.204 E-score. The value for ATTTCGGC was 0.283 E-score. The result for AGCCTGTG reads -0.113 E-score; that for AGTCGGGC, -0.224 E-score; that for ACGTCAAT, 0.0537 E-score.

Take ACTCCGAT: the binding signal came out at 0.0323 E-score. The value for AAAATGGT was -0.0779 E-score. The value for AAGCCACT was -0.234 E-score. With CAAGAGAA, the binding signal amounted to 0.123 E-score. The result for ATGTCGCA reads 0.0249 E-score. The value for AATTGGGG was 0.0599 E-score.

Turning to CAGCGATC, the binding signal was 0.194 E-score. The value for ATACCTTG was 0.0104 E-score; that for ACCTCGAC was -0.212 E-score; that for CAAACGTG was 0.0202 E-score. The value for ACCAGACC was -0.237 E-score; that for ACGTTACC was -0.0411 E-score; that for ATGCTCTG was -0.0748 E-score. The value for AATTGTCG was 0.0571 E-score; that for ATCACCAT was 0.123 E-score; that for AGCCTCCA was -0.25 E-score. Turning to AATACCCT, the binding signal was -0.0772 E-score. The result for ACCATGAC reads -0.159 E-score. With AACTGTGC, the binding signal is -0.112 E-score. The value for CAGCCCGG was -0.207 E-score. The result for CACAGACC reads -0.16 E-score; that for ATGAGCGC, -0.0257 E-score; that for CAGAGCAA, -0.0723 E-score. The value for ACATGGTC was -0.294 E-score. For the sequence AGCCATAG, the binding signal was -0.285 E-score.

Sequence AGGTAAAG had a binding signal of -0.0423 E-score.

In turn, ACCCTGCC gave a binding signal of -0.148 E-score. The result for AAAAATTT reads 0.267 E-score. The value for ATCCAAGC was 0.198 E-score. The result for AATAATAC reads 0.103 E-score; that for AACTCGAT, 0.0596 E-score; that for CAACAAGG, -0.0885 E-score.

In turn, ACGTATCT displayed a binding signal of 0.318 E-score. The value for AAGATGTC was -0.0083 E-score; that for ATGCTGAC was -0.0932 E-score; that for ATGTCGCG was -0.0314 E-score.

The sequence AAATAAGT yielded a binding signal of 0.034 E-score.

For ACAAATCG, the binding signal is 0.297 E-score.

Regarding AGATGTTG, the binding signal was found to be 0.111 E-score.

CAAACACG came in with a binding signal of -0.0195 E-score. The value for ACCATGGC was -0.295 E-score; that for AGCCGGGA was -0.0936 E-score.

ACGACTCC showed a binding signal of -0.0391 E-score.

For the sequence AACGAAGC, the binding signal is -0.0104 E-score. On to AGGGGCGA, for which the binding signal was -0.151 E-score. On to ACTCCCAG, for which the binding signal was -0.239 E-score. The value for AGTTCTAG was -0.0357 E-score; that for AGGTCTGG was -0.0443 E-score; that for ACCGTCAG was -0.124 E-score. The result for ACTGCGAT reads 0.208 E-score; that for AATTCCTC, 0.0722 E-score; that for ACATCGCA, -0.0776 E-score. ACACACCA had a binding signal of -0.105 E-score. The result for CAACACGC reads -0.208 E-score; that for ACGCCATC, -0.118 E-score; that for ACTGGCTG, -0.204 E-score. With ATTTACAG, the binding signal turned out to be 0.201 E-score. The result for AGTCGCTC reads -0.229 E-score; that for AACCTTTA, 0.126 E-score; that for AGCCGTGC, -0.223 E-score. The value for ACTCGAAC was -0.0967 E-score; that for AAATACAC was 0.0256 E-score. The value for ACCCACAG was -0.256 E-score.

Regarding AGTTACTA, the binding signal was -0.00404 E-score. The result for AATCAATA reads 0.274 E-score; that for ACGCTGCG, -0.111 E-score; that for AATCATAC, 0.263 E-score.

The sequence AGATTTTC displayed a binding signal of 0.488 E-score.

Consider AGCAGGTG, for which the binding signal is -0.2 E-score. On to ACCTTTGA, for which the binding signal was -0.00246 E-score.
